Measured values taken from patent publication EP0243717A1 (priority 1986, dated 1987).

Assays:
[1] = tested on: Treponema hyodysenteriae B 204
[2] = tested on: Treponema hyodysenteriae DJ70 P-3; settings: for Lesion: mice with lesion/mice; for ED50: Table 1; for ED50 / Fifty-percent effective dosages (ED50): CF-1 mice, administration through drinking water; for Curative ratios: Table 2; for Fifty-percent effective dosages (ED50): list after b26
Protocol: Groups of seven-week old mice (CF-1) are orally infected with Treponema hyodensenteriae DJ 70 P-3 as the test pathogen, each group consisting of five mice. The mice are fasted beginning one day before the bacterial infection, and hygromycin A is administered to them in drinking water at the dosages of 60, 30, 15, 7.5, 3.7, 1.8 and 0.9 µg/ml. The bacterial infection is effected on the first and second days after fasting. The drug is administered through drinking water for six consecutive days after the first bacterial infection. On the sixth day of the administration the test animals are necropsied, and presence of Treponema hyodysenteriae in the contents of their digestive organs are determined by three days' cultivation in blood agar. As the positive control, Lincomycin (60-3.7 pg/ml) Dynamutilin, lankacidin C and olaquindox (60-7.5 µg/ml, respectively) are administered through drinking water at the concentrations indicated. As the negative control, untreated group allowed to freely drink water.

[3] = tested on: A. laidlawii KB 175 (Bm-1); assay: microbe, parasite or virus in culture; settings: Medium D
Excerpt: (§1) For reference, the minimum growth inhibition concentrations (MIC) to various bacteria of above five drugs and Lankacidin C are shown in Table 3.

[4] = tested on: Acholeplasma laidlawii KB 174 (PG-8); assay: microbe, parasite or virus in culture; settings: Medium D
Excerpt: as §1

Aspergillus niger KF-105 = assay: microbe, parasite or virus in culture; settings: Medium E
Excerpt: as §1

[5] = tested on: B. cereus KB 143 (IFO 3001); assay: microbe, parasite or virus in culture; settings: Medium A
Excerpt: as §1

[6] = tested on: B. megaterium KB 144 (IFO 12108); assay: microbe, parasite or virus in culture; settings: Medium A
Excerpt: as §1

[7] = tested on: Bacillus subtilis KB 211 (ATCC 6633); assay: microbe, parasite or virus in culture; settings: Medium A
Excerpt: as §1

[8] = tested on: C. difficile KB 258 (ATCC 9689); assay: microbe, parasite or virus in culture; settings: Medium B
Excerpt: as §1

[9] = tested on: C. novyi KB 136 (ILD 140); assay: microbe, parasite or virus in culture; settings: Medium B
Excerpt: as §1

Candida albicans KF-1 = assay: microbe, parasite or virus in culture; settings: Medium E
Excerpt: as §1

[10] = tested on: E. coli KB 176 (NIHJ JC-2); assay: microbe, parasite or virus in culture; settings: Medium A
Excerpt: as §1

[11] = tested on: E. coli KB 198 (ML^r,LCM^s); assay: microbe, parasite or virus in culture; settings: Medium A
Excerpt: as §1

[12] = tested on: Escherichia coli KB 213 (NIHJ); assay: microbe, parasite or virus in culture; settings: Medium A
Excerpt: as §1

[13] = tested on: Fusobacterium varium KB 234 (ATCC 8501); assay: microbe, parasite or virus in culture; settings: Medium B
Excerpt: as §1

[14] = tested on: Haemophilus pleuropneumoniae KB 282; assay: microbe, parasite or virus in culture; settings: Medium C
Excerpt: as §1

[15] = tested on: Klebsiella pneumoniae KB 214 (IFO 10031); assay: microbe, parasite or virus in culture; settings: Medium A
Excerpt: as §1

[16] = tested on: M. gallisepticum KB 171 (S-6); assay: microbe, parasite or virus in culture; settings: Medium D
Excerpt: as §1

[17] = tested on: M. gallisepticum KB 172 (333-P); assay: microbe, parasite or virus in culture; settings: Medium D
Excerpt: as §1

M. pneumoniae KB-173 = assay: microbe, parasite or virus in culture; settings: Medium D
Excerpt: as §1

[18] = tested on: Micrococcus luteus KB 212 (ATCC 9341); assay: microbe, parasite or virus in culture; settings: Medium A
Excerpt: as §1

[19] = tested on: Mucor racemosus KF 223 (IFO 4581); assay: microbe, parasite or virus in culture; settings: Medium E
Excerpt: as §1

[20] = tested on: Mycobacterium smegmatis KB 42 (ATCC 607); assay: microbe, parasite or virus in culture; settings: Medium A
Excerpt: as §1

[21] = tested on: Mycoplasma gallisepticum KB 170 (KP-13); assay: microbe, parasite or virus in culture; settings: Medium D
Excerpt: as §1

[22] = tested on: Penicillium herquei KE 227 (IFO 4647); assay: microbe, parasite or virus in culture; settings: Medium E
Excerpt: as §1

[23] = tested on: Proteus vulgaris KB 127 (IFO 3167); assay: microbe, parasite or virus in culture; settings: Medium A
Excerpt: as §1

[24] = tested on: Pseudomonas aeruginosa KB 115 (IFO 3080); assay: microbe, parasite or virus in culture; settings: Medium A
Excerpt: as §1

[25] = tested on: S. aureus KB 199 (ML^r,TC^r); assay: microbe, parasite or virus in culture; settings: Medium A
Excerpt: as §1

[26] = tested on: S. aureus KB 34 (FDA 209p); assay: microbe, parasite or virus in culture; settings: Medium A
Excerpt: as §1

[27] = tested on: S. cerevisiae KF 237 (ATCC 9763); assay: microbe, parasite or virus in culture; settings: Medium E
Excerpt: as §1

Saccharomyces sake KF 26 = assay: microbe, parasite or virus in culture; settings: Medium E
Excerpt: as §1

[28] = tested on: Staphylococcus aureus KB 210 (ATCC 6538p); assay: microbe, parasite or virus in culture; settings: Medium A
Excerpt: as §1

[29] = tested on: Treponema hyodysenteriae B 78; assay: microbe, parasite or virus in culture; settings: Medium F
Excerpt: as §1

[30] = tested on: Treponema hyodysenteriae DJ 70 P-3; assay: microbe, parasite or virus in culture; settings: Medium F
Excerpt: as §1

[31] = tested on: Trichophyton interdigitale KF 62; assay: microbe, parasite or virus in culture; settings: Medium E
Excerpt: as §1

[32] = tested on: pasteurella hemolytica KB 281; assay: microbe, parasite or virus in culture; settings: Medium C
Excerpt: as §1

[33] = Treatment D, carbadox 50 g/ton feed, Total
[34] = Treatment D, carbadox 50 g/ton feed, per group (Group No. 4, 7)
[35] = Dosage 7.5 μg/mℓ in drinking water
[36] = Dosage 15 μg/mℓ in drinking water
[37] = Dosage 30 μg/mℓ in drinking water
[38] = Dosage 60 μg/mℓ in drinking water

COC(=O)N/N=C/c1c[n+]([O-])c2ccccc2[n+]1[O-] [Carbadox, carbadox]
General appearance : No of pig days Depressed [1, 33]: 3 pig days | General appearance : No of pig days Moribund [1, 33]: 0 pig days | General appearance : No of pig days Normal [1, 33]: 272 pig days | General appearance : share of pig days Depressed [1, 33]: 1% | General appearance : share of pig days Normal [1, 33]: 99% | General appearance : No of pig days Depressed [1, 34]: 1 pig days and 2 pig days | General appearance : No of pig days Moribund [1, 34]: 0 pig days | General appearance : No of pig days Normal [1, 34]: 144 pig days and 128 pig days | percent recovery of T. hyodysenteriae from rectal swabs, average ([1]; carbadox treatment group b, 50 g/ton feed): 8% | lesions in large intestine (pigs with lesions) ([1]; group D, carbadox 50 g/ton feed, […]): 10%

CC(=O)C(=O)N[C@@H]1/C=C(C)/C=C/[C@@H](O)C/C=C(C)/C=C/[C@@H](O)C[C@H]2OC(=O)[C@]1(C)C(=O)[C@@H]2C [Lankacidin C]
Noninfective (%) [2, 35]: 0% | Presence of T. hyo. 1st day [2, 35]: 3/5 | Presence of T. hyo. 3rd day [2, 35]: 5/5 | Lesion [2, 35]: 3/5 | Noninfective (%) [2, 36]: 0% | Presence of T. hyo. 1st day [2, 36]: 0/5 | Presence of T. hyo. 3rd day [2, 36]: 5/5 | Lesion [2, 36]: 0/5 | Noninfective (%) [2, 37]: 60% | Presence of T. hyo. 1st day [2, 37]: 0/5 | Presence of T. hyo. 3rd day [2, 37]: 2/5 | Lesion [2, 37]: 0/5 | Noninfective (%) [2, 38]: 80% | Presence of T. hyo. 1st day [2, 38]: 0/5 | Presence of T. hyo. 3rd day [2, 38]: 1/5 | Lesion [2, 38]: 0/5 | ED50 [2]: 40.5 µg/mL (≈ 88.1 µM) | Curative ratios ([2]; Dosage 7.5 μg/mℓ): 0% | Curative ratios ([2]; Dosage 15 μg/mℓ): 0% | Curative ratios ([2]; Dosage 30 μg/mℓ): 60% | Curative ratios ([2]; Dosage 60 μg/mℓ): 80% | Fifty-percent effective dosages (ED50) [2]: 40.5 µg/mL | MIC [3]: 25 µg/mL (≈ 54.4 µM) | MIC [4]: 25 µg/mL (≈ 54.4 µM) | MIC (Aspergillus niger KF-105): >100 µg/mL | MIC [5]: 100 µg/mL (≈ 218 µM) | MIC [6]: >100 µg/mL | MIC [7]: >100 µg/mL | MIC [8]: 25 µg/mL (≈ 54.4 µM) | MIC [9]: 0.4 µg/mL (≈ 0.87 µM) | MIC (Candida albicans KF-1): >100 µg/mL | MIC [10]: >100 µg/mL | MIC [11]: 0.78 µg/mL (≈ 1.7 µM) | MIC [12]: >100 µg/mL | MIC [13]: >100 µg/mL | MIC [14]: 6.25 µg/mL (≈ 13.6 µM) | MIC [15]: >100 µg/mL | MIC [16]: 25 µg/mL (≈ 54.4 µM) | MIC [17]: 50 µg/mL (≈ 109 µM) | MIC (M. pneumoniae KB-173): 25 µg/mL (≈ 54.4 µM) | MIC [18]: < 0.2 µg/mL | MIC [19]: >100 µg/mL | MIC [20]: >100 µg/mL | MIC [21]: 50 µg/mL (≈ 109 µM) | MIC [22]: >100 µg/mL | MIC [23]: >100 µg/mL | MIC [24]: >100 µg/mL | MIC [25]: 1.56 µg/mL (≈ 3.39 µM) | MIC [26]: 1.56 µg/mL (≈ 3.39 µM) | MIC [27]: >100 µg/mL | MIC (Saccharomyces sake KF 26): >100 µg/mL | MIC [28]: 0.4 µg/mL (≈ 0.87 µM) | MIC [29]: 0.78 µg/mL (≈ 1.7 µM) | MIC [30]: 0.01 µg/mL (≈ 0.0218 µM) | MIC [31]: >100 µg/mL | MIC [32]: 25 µg/mL (≈ 54.4 µM)

Cc1c(C(=O)NCCO)[n+]([O-])c2ccccc2[n+]1[O-] [Olaquindox]
Noninfective (%) [2, 35]: 0% | Presence of T. hyo. 1st day [2, 35]: 5/5 | Presence of T. hyo. 3rd day [2, 35]: 5/5 | Lesion [2, 35]: 5/5 | Noninfective (%) [2, 36]: 0% | Presence of T. hyo. 1st day [2, 36]: 5/5 | Presence of T. hyo. 3rd day [2, 36]: 5/5 | Lesion [2, 36]: 5/5 | Noninfective (%) [2, 37]: 0% | Presence of T. hyo. 1st day [2, 37]: 5/5 | Presence of T. hyo. 3rd day [2, 37]: 5/5 | Lesion [2, 37]: 5/5 | Noninfective (%) [2, 38]: 0% | Presence of T. hyo. 1st day [2, 38]: 3/5 | Presence of T. hyo. 3rd day [2, 38]: 5/5 | Lesion [2, 38]: 3/5 | ED50 [2]: >60 µg/mL | Curative ratios ([2]; Dosage 7.5 μg/mℓ): 0% | Curative ratios ([2]; Dosage 15 μg/mℓ): 0% | Curative ratios ([2]; Dosage 30 μg/mℓ): 0% | Curative ratios ([2]; Dosage 60 μg/mℓ): 0% | Fifty-percent effective dosages (ED50) [2]: >60 µg/mL

Converted amounts (≈) assume the structure as drawn. “And” between values parts separate entries of the source, which are not always exact repeats. Identical values can stand only once. Like-named read-outs stand apart in the source and are kept apart here.
